± gives the standard deviation of the averaged measurements. The full ranking holds about 33,000 sequences; the median of “E-score (dimensionless, -0.5 to 0.5)” is about -0.046, and the highest 2% start at about 0.36. This is one part of the list.
Each sequence was assayed on T1, SpTbr T-box DNA-binding domain (GST fusion) (assay: PBM E-score of 8-mer (E-score (dimensionless, -0.5 to 0.5)); Tbr is Tbrain of the sea star Patiria miniata (Pm) or the sea urchin Strongylocentrotus purpuratus (Sp); higher = stronger binding preference; most listed sequences are background and not binding sites). Settings: the construct has about 5 more residues each side.
T1 sequence: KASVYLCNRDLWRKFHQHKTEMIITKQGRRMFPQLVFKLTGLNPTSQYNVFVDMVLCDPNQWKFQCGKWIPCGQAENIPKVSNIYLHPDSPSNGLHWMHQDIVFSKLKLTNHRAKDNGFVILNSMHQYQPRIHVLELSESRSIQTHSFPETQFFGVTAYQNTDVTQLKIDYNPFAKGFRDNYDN
Description: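 Universal protein-binding microarray (Agilent AMADID 016060, 60-bp probes with a 35-bp variable region) incubated with 200 nM GST-fused Strongylocentrotus purpuratus Tbr T-box DNA-binding domain (residues 362-554) in PBS pH 7.5. Scored for every ungapped 8-mer (given with its reverse complement) as E-score (range -0.5 to 0.5; >0.45 counts as bound) and Z-score of median probe intensity. Two replicate arrays (datasets 1 and 2).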
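Further: protein at 200 nM in PBS on universal double-stranded arrays.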

Sequence	PBM E-score of 8-mer
GAATGTGC	0.228 ± 0.025
ATCATGAA	-0.173 ± 0.011
CGCATTAG	0.0791 ± 0.035
CTTACGAC	-0.0779 ± 0.089
AAAGTCAG	-0.353 ± 0.025
AAAACAAG	-0.177 ± 0.051
CGTGCGAG	0.373 ± 0.018
GCCCCTAA	-0.229 ± 0.015
AGCACGTA	0.162 ± 0.023
CAGTGTGG	0.243 ± 0.043
CAAACTGC	0.0357 ± 0.04
ACGCGTAC	0.096 ± 0.088
GATACGCC	-0.045 ± 0.046
AATTAACT	0.192 ± 0.035
AAGCGTAT	-0.14 ± 0.068
AAGCGCTA	0.281 ± 0.0036
CAGCCTAC	0.178 ± 0.011
CCTCGCCG	0.0507 ± 0.13
CGCGGGCA	-0.0187 ± 0.11
CTCTACGC	-0.0286 ± 0.08
ACGGGCGC	0.0718 ± 0.05
GCCCGTTA	0.0948 ± 0.051
CCCCCATA	-0.229 ± 0.057
CAAGATGC	-0.0897 ± 0.071
ATATGCTG	-0.0836 ± 0.089

Sequence	PBM E-score of 8-mer
GCAATACA	-0.0823 ± 0.031
CAAGTATC	-0.125 ± 0.023
ACATCGCA	0.161 ± 0.041
GCTTCGTA	-0.0788 ± 0.048
CATCAGGC	-0.0419 ± 0.0077
ATAAAATC	0.0237 ± 0.035
ACGAGGTG	0.419 ± 0.019
AGTCACTA	0.0654 ± 0.081
ACAATGTA	0.0148 ± 0.0027
TCACATAA	0.131 ± 0.087
GCCCGAGC	-0.304 ± 0.02
ATCGTTAC	0.125 ± 0.053
ATAGGTTG	-0.0363 ± 0.049
ACCACGCT	-0.0128 ± 0.0025
GAGAGTAA	0.0786 ± 0.011
AGTCCATC	-0.21 ± 0.01
TATCGGAA	-0.0364 ± 0.00083
GTCGCTTA	0.0366 ± 0.058
GTGCCCTA	-0.196 ± 0.026
AATCCCAG	-0.0532 ± 0.027
CTAGCGAC	0.176 ± 0.0026
CGTCGCGA	0.277 ± 0.049
ACCTGGCT	0.12 ± 0.017
AACATGAC	0.0391 ± 0.045
GAGTACGA	-0.0782 ± 0.02

Sequence	PBM E-score of 8-mer
GCCATGGA	-0.1949 ± 0.00032
TCGGCTCA	-0.177 ± 0.074
GCAGTATA	-0.11 ± 0.1
CGGGGGCC	-0.095 ± 0.099
CACTCTGC	-0.0609 ± 0.049
AGACTGAT	-0.168 ± 0.062
GGTCGGTA	-0.147 ± 0.06
CGTCAAGC	0.116 ± 0.015
GTCCGTGA	-0.038 ± 0.028
AATGTTCA	0.0154 ± 0.037
CAAGAAGG	-0.134 ± 0.04
GTGGACCA	-0.106 ± 0.0052
GATTGCCC	-0.111 ± 0.043
CGTTTGTC	0.047 ± 0.033
CTAACCAC	0.127 ± 0.014
ACTGCTTC	-0.1684 ± 0.001
AGGACTAG	-0.386 ± 0.014
GATGCACC	-0.183 ± 0.032
CCGAATGC	-0.255 ± 0.015
TCCTAGCA	-0.015 ± 0.014
TTCAAGAA	-0.157 ± 0.032
GGTTGTAA	-0.0594 ± 0.095
CGGGCCGA	-0.179 ± 0.042
GCGGGGAA	0.0869 ± 0.046
CTGCCAAG	0.105 ± 0.03

Sequence	PBM E-score of 8-mer
AGAAAAAG	-0.0907 ± 0.043
GAAGGCCC	-0.115 ± 0.036
CCTTCCCG	-0.161 ± 0.12
AGTCAGGA	-0.151 ± 0.054
AGGGAAGC	-0.26 ± 0.037
TCGAGAAA	-0.00569 ± 0.14
ACATAGCA	0.245 ± 0.0061
CTATTTAA	0.115 ± 0.091
ACTGCTCG	0.0799 ± 0.013
TAGGAATA	-0.38 ± 0.036
ATCGCGGG	0.153 ± 0.021
AGTCTGAG	-0.024 ± 0.047
AGTTAAGG	-0.0801 ± 0.042
ATTTTATG	-0.0689 ± 0.03
CTACGTGC	0.039 ± 0.085
CCAGTACG	-0.337 ± 0.092
GCAGAAGA	-0.218 ± 0.017
AGACATAA	-0.0985 ± 0.064
CCGTATAG	-0.0614 ± 0.023
GTCTTTAA	-0.237 ± 0.063
ACACTCCC	0.2705 ± 0.0005
CATTTTCA	0.0656 ± 0.088
CAGGAATA	-0.119 ± 0.0038
GGTCCGTA	-0.296 ± 0.021
CCAAGTTA	-0.179 ± 0.014

Sequence	PBM E-score of 8-mer
TTCCGAAA	-0.237 ± 0.11
ATTTAATC	-0.249 ± 0.04
GGAATAAA	-0.172 ± 0.071
CGGACCTA	-0.0608 ± 0.061
GGGTCCAA	-0.128 ± 0.038
ATCATAAA	-0.055 ± 0.0049
TAAGTACA	-0.0343 ± 0.055
AATGGCCT	-0.0378 ± 0.026
GGATGGAA	-0.27 ± 0.083
ATCAGCAG	-0.00714 ± 0.041
ACAGCGTC	0.081 ± 0.022
AGGAGCCT	-0.276 ± 0.094
CACTGGAG	-0.148 ± 0.1
ACATCCGG	-0.0474 ± 0.027
GCTTGGGA	-0.232 ± 0.01
CGGACGCC	0.0453 ± 0.042
AATTTTAA	-0.0444 ± 0.056
GGTTCGCA	0.378 ± 0.0054
CTGGCTTA	-0.332 ± 0.03
CTGTACCC	-0.14 ± 0.021
GGTAAAGA	-0.113 ± 0.037
AATGAGTA	-0.0297 ± 0.0081
GCGGTGCA	-0.00525 ± 0.019
ATAGCCAA	-0.218 ± 0.074
ATTAAATG	-0.0679 ± 0.074

Sequence	PBM E-score of 8-mer
CGTCTGAA	-0.2253 ± 0.0012
AAATGCCC	-0.155 ± 0.035
ACCTTCCG	0.134 ± 0.0089
ACGATTTG	0.142 ± 0.061
CTATTAGC	0.0737 ± 0.023
AACTGGGT	6e-05 ± 0.095
ATCATTTC	-0.204 ± 0.027
ATACAACG	-0.084 ± 0.024
AGTACAAG	-0.144 ± 0.098
AACACCAA	0.356 ± 0.012
CGCGTCGA	0.208 ± 0.074
ACAGCACG	0.0993 ± 0.0083
AAAGGCAC	-0.0612 ± 0.07
CTAAAACC	-0.175 ± 0.062
CGGCCTAG	-0.0214 ± 0.017
ACTACTCA	0.0241 ± 0.08
ACGTACGT	0.194 ± 0.11
ACCGAGCG	-0.103 ± 0.03
AGTACTGG	-0.347 ± 0.0073
ACATCGTA	-0.119 ± 0.0033
ATTAAAGA	-0.191 ± 0.085
ATGTTTGC	-0.0213 ± 0.033
TCGTTCCA	-0.0334 ± 0.033
ACATACGA	-0.067 ± 0.049
TCCGTGCA	-0.00022 ± 0.034

Sequence	PBM E-score of 8-mer
GTGATGGA	0.239 ± 0.012
AGGCCTGG	-0.312 ± 0.031
ACACAGCG	0.182 ± 0.013
TAGTCCAA	-0.31 ± 0.0073
CGTTCCAC	0.0658 ± 0.034
CTTAATTA	-0.16 ± 0.025
CAGACTAC	-0.259 ± 0.017
CAACCTTA	-0.247 ± 0.048
ATAGACTC	-0.332 ± 0.0036
CAAGCCAA	-0.202 ± 0.061
GAGTAGCA	0.063 ± 0.046
ACTCACCT	0.291 ± 0.0073
AAAGAGCA	-0.128 ± 0.055
GTTGCTCA	0.115 ± 0.014
GAGTTTCC	-0.213 ± 0.024
CGGGACAG	-0.113 ± 0.074
AGCGCCAA	0.242 ± 0.023
GTTACCAA	0.139 ± 0.035
ACAGAGTC	-0.121 ± 0.0016
CCGAGAGA	-0.0571 ± 0.025
CGGACAGC	-0.109 ± 0.0052
ACGCGCGA	0.393 ± 0.023
